The campaign covered roughly 420,000 compounds. About 540 (0.13%) were called active. The inconclusive results got no clear call from the source; some entries with a clear call stand among them for comparison. Rule as the data show it: active = activity change below about -50%; inconclusive = mostly about -30% to -49%; inactive = weaker than that.
What follows are molecules tested against Phosphatidylinositol 4-kinase type 2-alpha (Homo sapiens) (UniProt Q9BTU6) (assay: qHTS for small molecular inhibitors of PI4K2A). Settings: purified PI4K2A, ADP-Glo luminescence, 1 h; at 76.9 µM, hits give low values.
Chain of UniProt Q9BTU6 (Q9BTU6 whole entry, looked up): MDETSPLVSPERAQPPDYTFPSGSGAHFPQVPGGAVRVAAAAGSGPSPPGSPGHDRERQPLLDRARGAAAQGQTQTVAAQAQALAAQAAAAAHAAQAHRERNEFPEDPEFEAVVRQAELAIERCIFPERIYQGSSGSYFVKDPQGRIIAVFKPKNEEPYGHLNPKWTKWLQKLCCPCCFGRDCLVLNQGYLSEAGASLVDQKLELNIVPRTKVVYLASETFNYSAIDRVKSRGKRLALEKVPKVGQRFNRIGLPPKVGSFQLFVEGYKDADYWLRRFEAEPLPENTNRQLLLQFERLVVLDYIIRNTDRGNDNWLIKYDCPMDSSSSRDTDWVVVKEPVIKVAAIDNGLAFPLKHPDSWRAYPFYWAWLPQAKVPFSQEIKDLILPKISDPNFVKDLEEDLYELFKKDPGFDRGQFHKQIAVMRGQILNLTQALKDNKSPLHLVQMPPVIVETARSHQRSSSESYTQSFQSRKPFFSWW
Procedure, shortened: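 Compounds are screened against recombinant PI4K2A using PI as substrate and ATP, the latter dispensed at 300 microM. Reactions run one hour at ambient temperature before ADP-Glo detection; full inhibition defined by wells lacking enzyme.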
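Also: -100% = wells without enzyme as full effect.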

Row | Structure (SMILES) | activity change, negative = inhibition
1 | Cc1coc2c1c(C)cc1oc(=O)c(Cc3ccccc3)c(C)c12 | active: -84.2%
2 | O=C(COC(=O)c1c2c(nc3ccccc13)/C(=C\c1ccco1)CC2)NC1CCCC1 | inconclusive: -44.5%
3 | CC(=O)N1CCc2cc(Br)cc(S(=O)(=O)N3CCC(C(=O)Nc4ccc(C(C)C)cc4)CC3)c21 | inactive: -3.2%
4 | Nc1c(N2CCOCC2)cc(Cl)c2nonc12 | active: -61.7%
5 | CCCCC1=CC2=C(c3ccco3)C(=O)C(C)(OC(=O)c3ccc(OC)cc3)C(=O)C2=CN1Cc1ccco1 (centres undefined) | inconclusive: -32.7%
6 | CCOC(=O)c1cccc(NC(=O)c2oc3c(c2C)-c2nn(CC)cc2CC3)c1 | inconclusive: -35.2%
7 | CCOc1ccc(Cl)cc1-c1cc(C(=O)NCC2CCCCC2)[nH]n1 | inactive: 5.44%
8 | O=C(CSc1nc2nc3c(cc2c(=O)n1-c1ccccc1)CCCC3)Nc1cccc2ccccc12 | inconclusive: -32.1%
9 | CC(=O)NCCNc1nc2cc(-c3cnn(CCC(C)C)c3)sc2c(=O)n1C | inconclusive: -32.3%
10 | Cc1nc2oc3ccc(Cl)cc3c(=O)c2cc1C(=O)O | inconclusive: -37.6%
11 | COc1ccccc1NCCC(=O)O | inactive: 0.473%
12 | O=C(Nc1ccc(N2CCCC2)cc1)C(Cl)c1ccccc1 (centres undefined) | inconclusive: -39.8%
13 | CCCCS(=O)(=O)c1oc(-c2ccc(F)cc2)nc1S(=O)(=O)c1ccc(C)cc1 | inactive: 48.4%
14 | Cn1c(=O)c2c(nc(NN=C3CCCC3)n2C)n(C)c1=O | inconclusive: -33.8%
15 | Cc1cc(-c2csc(NCc3ccccc3)n2)c(C)n1C | inconclusive: -32.2%
16 | C=C1c2cccc(O)c2C(=O)C2C(=O)[C@]3(O)C(=O)C(C(N)=O)C(=O)[C@@H](N(C)C)[C@@H]3[C@@H](O)[C@H]12 (some centres undefined) | inconclusive: -47.9%
17 | O=C1Cc2ccccc2C(=O)N1CCc1ccccc1 | inconclusive: -39.2%
18 | Cc1nc(SCC(=O)c2ccccc2)c(C#N)c(-c2ccco2)c1C(=O)NCc1ccco1 | inconclusive: -33%
19 | COC(=O)c1ccc(-n2c(C)cc(-c3csc(NC(=O)c4ccc(S(=O)(=O)N(C)C)cc4)n3)c2C)cc1 | inconclusive: -43.2%
20 | COc1cc(/C=C2\C(=O)N(c3ccc(S(N)(=O)=O)cc3)N=C2C)ccc1OC(=O)c1ccco1 | active: -52.2%
21 | CCC(COC)Oc1cc(NCc2ccccc2)c2ncn(C(C)C)c2c1 (centres undefined) | inconclusive: -36.4%
22 | Cc1ccc(C(c2c(O)nc3n(c2=O)CCS3)c2c(O)nc3n(c2=O)CCS3)cc1 | active: -52.2%
23 | CC1=NN(c2ccc(Cl)c(C(=O)O)c2)C(=O)/C1=C\c1ccc(-c2ccc(C(=O)O)cc2)o1 | inconclusive: -46.9%

Row | Structure (SMILES) | activity change, negative = inhibition
24 | CCc1ccccc1NC(=O)CNC(=O)c1ccc(S(=O)(=O)NCc2ccco2)cc1 | inactive: 3.14%
25 | O=C1C(=Cc2cn(-c3ccccc3)nc2-c2ccc(OCc3ccccc3)cc2)SC(=S)N1CCS(=O)(=O)O | inactive: -5.53%
26 | CCCCN(CCCC)CCCNC(=O)C1CC(c2cc(C(F)(F)F)cc(C(F)(F)F)c2)=NO1 (centres undefined) | active: -66.3%
27 | COC(=O)Cc1ccc2sc(-c3ccccc3)nc2c1 | active: -62.3%
28 | COc1cc(C2OCC3C(c4ccc(OC5OC(CO)C(O)C(O)C5O)c(OC)c4)OCC23)ccc1O (centres undefined) | inactive: -3.13%
29 | Cc1nn(C)cc1C(C)NC(=O)c1cc(COc2c(F)cccc2F)on1 (centres undefined) | inactive: -0.593%
30 | CC1CCCCC1NC(=O)COC(=O)c1c2c(nc3ccccc13)/C(=C/c1ccco1)CC2 (centres undefined) | inconclusive: -39.3%
31 | ClN=C1C=CC=CC1=NCl | inconclusive: -48.6%
32 | O=C(CNS(=O)(=O)c1ccccc1)N1CCN(c2ccccn2)CC1 | inactive: 2.53%
33 | COc1ccc(NC(=O)C2CCN(S(=O)(=O)c3c(C)noc3/C=C/c3ccco3)CC2)cc1 | inconclusive: -37.6%
34 | C(=C\c1ccco1)/c1ccc2ccccc2n1 | inconclusive: -39.3%
35 | CCn1nc(C)cc1-c1nnc(SCC(=O)Nc2ccccc2)n1CCCOC | inactive: -0.121%
36 | Oc1cc(NCCN2CCOCC2)cc2cccnc12 | inconclusive: -34.1%
37 | O=C(Nc1nccs1)c1ccc(S(=O)(=O)NCc2cccs2)cc1 | inactive: 1.07%
38 | COC(=O)c1cccc(NC(=O)c2nsc3ccccc23)c1 | inconclusive: -37.1%
39 | O=C(NCC1CCCCC1)c1cccc([N+](=O)[O-])c1 | inactive: 7.52%
40 | C=CCn1c(N/N=C/c2ccc(O)cc2)nc2ccccc2c1=O | inactive: -3.93%
41 | CCOc1ccc(OCC(=O)Nc2nccs2)cc1 | active: -86.3%
42 | CCOc1ccc(/C=N/NC(=O)c2[nH]ncc2Br)c(O)c1 | active: -74.9%
43 | CCOC(=O)[C@H](CCc1ccccc1)N[C@@H](C)C(=O)N1CCC[C@@H]1C(=O)O | inactive: 5.87%
44 | O=C(NN1C(=O)/C(=C/C=C/c2ccco2)SC1=S)c1ccncc1 | inconclusive: -36.1%
45 | CC(C)(C)c1ccc(C(=O)O/N=C(\N)c2ccccn2)cc1 | inconclusive: -36.3%
46 | O=C1CC(/C=C/c2ccco2)=Nc2ccccc2N1 | inconclusive: -30.5%

Row | Structure (SMILES) | activity change, negative = inhibition
47 | Cc1ccc(CS(=O)(=O)c2ncc(Cl)c(C(=O)Nc3nnc(C)s3)n2)cc1 | inconclusive: -33.3%
48 | O=C(Cn1sc2ccccc2c1=O)Nc1ccccc1 | inconclusive: -31.6%
49 | COc1cc(NCCCC(C)N)c2ncccc2c1 (centres undefined) | active: -51.5%
50 | CC1(C)Cc2c(C#N)c(N3CCN(C(=O)c4ccco4)CC3)nc(-c3ccco3)c2CS1 | inconclusive: -43.3%
51 | COCC(C)N1C(=O)Cc2c1nc(N)c1c(N)nc(N3CCN(c4ccccc4F)CC3)c(C#N)c21 (centres undefined) | inconclusive: -46.8%
52 | CC1(OC(=O)c2cccs2)C(=O)C=C2C=C3CCCN3C=C2C1=O (centres undefined) | inconclusive: -34.5%
53 | CC1=CC(C)(C)N2C(=O)C(=Nc3ccc(O)cc3)c3cccc1c32 | inconclusive: -36.5%
54 | S=C(Nc1ccc(N2CCOCC2)cc1)Nc1ccc2nc(-c3ccco3)c(-c3ccco3)nc2c1 | inconclusive: -32.1%
55 | Cc1cccn2c(=O)c3cc(C#N)c(=NC(=O)c4ccccc4)n(Cc4ccco4)c3nc12 | inconclusive: -33.3%
56 | COc1ccc(N(C(=O)COc2c(C)cccc2C)S(=O)(=O)c2ccc(Cl)cc2)cc1 | inactive: 50.3%
57 | Cc1c(Nc2cc(Cl)c3nonc3c2[N+](=O)[O-])c(=O)n(-c2ccccc2)n1C | inconclusive: -34.3%
58 | CN(C)S(=O)(=O)c1cccc(NC(=S)NC(=O)c2ccco2)c1 | inactive: 6.8%
59 | CC1=NN(c2ccc(Br)cc2)C(=O)/C1=C/c1cccs1 | inconclusive: -45.5%
60 | Cc1cc(=O)n(-c2ccc(O)cc2)[nH]1 | inconclusive: -31.4%
61 | COc1cc(-c2nnn(CC(=O)NC3CCS(=O)(=O)C3)n2)ccc1OCc1ccccc1 (centres undefined) | active: -60.2%
62 | COc1ccc2cc3c(N)c(C(=O)NCc4ccco4)sc3nc2c1 | active: -56.8%
63 | Cc1n[nH]c(=O)nc1N/N=C/c1cccs1 | active: -51.8%
64 | COc1cccc(C(=O)O/N=C(\N)c2ccccn2)c1 | active: -72.7%
65 | O=C1CCN(S(=O)(=O)c2ccccc2)C2CCCCC12 (centres undefined) | inactive: 0.379%
66 | COCCCNc1ncnc2sc3c(c12)CCC(C)C3 (centres undefined) | inactive: -0.0856%
67 | C/C(CC(=O)Nc1cc(C)ccn1)=N\NC(=O)c1cccc(C)c1 | inconclusive: -36.6%
68 | CCOc1ccc(-c2ccc(SCC)nn2)cc1 | inconclusive: -39.6%
69 | O=C(Nc1ccc2nc(-c3ccco3)c(-c3ccco3)nc2c1)N1CCCCCC1 | active: -50.6%

Row | Structure (SMILES) | activity change, negative = inhibition
70 | COC(=O)c1sccc1NC(=O)Nc1ccc(C)cc1 | inconclusive: -39.6%
71 | O=C(O)C/C(=C\c1cccc(NC(=O)c2ccccc2Cl)c1)c1nc2ccccc2s1 | inactive: -13.3%
72 | COc1cc(SC)ccc1C(=O)Nc1nc2ccccc2[nH]1 | active: -74.3%
73 | CC(c1ccccc1)N1CC[C@H]2C=CC[C@@H](C(=O)Nc3ccc(F)c(F)c3)[C@H]2C1=O (some centres undefined) | inactive: 0.363%
74 | O=C1C(=Cc2ccc(Cl)cc2)CCc2ccccc21 | inconclusive: -47.3%
75 | O=C(Nc1nc(-c2ccco2)c(-c2ccco2)s1)C1CC(=O)N(c2ccc3c(c2)OCCO3)C1 (centres undefined) | active: -56%
76 | COc1ccc(CN2C(=O)Cc3c2nc(N)c2c(N)nc(N4CCOCC4)c(C#N)c32)cc1 | inconclusive: -48.9%
77 | COc1ccc(-c2nc3ccccc3s2)cc1 | inconclusive: -45.2%
78 | NC(=O)c1c(N)sc2c1CCCCC2 | inconclusive: -32.7%
79 | COc1ccc(C(=O)NNC(=O)c2ccccn2)cc1 | active: -85.1%
80 | COc1ccccc1N=Nc1ccc(O)c2ncccc12 | inconclusive: -41.1%
81 | Cc1nc(NC(=O)c2ccco2)sc1C(=O)O | active: -67.2%
82 | Cn1c(N/N=C/c2cccs2)cc(=O)n(C)c1=O | inconclusive: -36.8%
83 | O=S(=O)(N=C1C=CC(=NS(=O)(=O)c2ccccc2)c2ccccc21)c1ccccc1 | inconclusive: -32.4%
84 | Oc1ccc(Nc2ccccc2F)c2cccnc12 | active: -51.9%
85 | O=C1Cc2ccccc2C(=O)N1 | active: -56.4%
86 | NC(=O)N/N=C/c1coc2ccc3ccccc3c2c1=O | inactive: 1.25%
87 | Cc1ccc(C(=O)O)cc1NC(=O)c1cccs1 | inactive: 3.84%
88 | N#Cc1c(Nc2ccccc2C(F)(F)F)s[nH]c1=O | inactive: -0.667%
89 | CCc1oc2c(C)c(O)ccc2c(=O)c1-c1ccc2ccccc2n1 | active: -51.6%

— PubChem BioAssay AID1346378 (National Center for Advancing Translational Sciences (NCATS), 2018)
